Measured values as given in the supplement of paper PMC10126150.
Values marked as one replicate rest on one cluster of the flow cell; about a third of the high ones do not repeat.

system: ATP; assay: switch fluorescence ratio, 500 uM ATP over buffer (Cy3 cluster intensity, sum of 5 cycles each) (fold (ratio)); higher = stronger signal-on switching upon ATP binding; sequences stand for … in TCGTCGGCAGCGTCAGATGTGTATAAGAGACAGTTTTTTTTTTTTTTTTTTTTTTTTT…TC; details: aptamer strand: ATP DNA aptamer (quencher-CACCTGGGGGAGTATTGCGGAGGAAGG + anchor), 100 nM annealed; ATP concentration: 500 uM; one replicate
In short: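 For every switch-domain sequence, the fluorescence ratio is the mean of per-cluster values, each being summed target-cycle Cy3 intensity over summed buffer-cycle Cy3 intensity. Clusters outside 100-1000 RFU were excluded. On a modified Illumina MiSeq flow-cell, the Cy3-labelled switching-strand clusters were annealed to 100 nM quencher-labelled ATP aptamer, imaged in selection buffer and then after 15 min with 500 uM ATP at 22 °C. Five such cycles were run, with NaOH stripping and re-annealing between them.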
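Further: ATP exposure 15 min at 22 °C before imaging.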

Sequence | switch fluorescence ratio
GTTCTTGAGA | 1.01
GTTCTTTCTA | 1
GTTGAACGAG | 0.976
GTTGAAGCT | 0.899
GTTGACCGTA | 1.17
GTTGACGGTT | 0.986
GTTGACTCAG | 0.979
GTTGACTCGT | 1
GTTGACTTGT | 1.01
GTTGAGAAAG | 0.969
GTTGAGGCGG | 1
GTTGATATGG | 1
GTTGATGTGC | 1.01
GTTGATTGCG | 1.02
GTTGCAAATG | 0.973
GTTGCACGGA | 0.993
GTTGCCTTGG | 1.05
GTTGCGAACT | 0.946
GTTGCGAGG | 0.999
GTTGCTGTGC | 1.02
GTTGCTTAAC | 1.03
GTTGCTTCCT | 1.24
GTTGGACTCA | 1.03
GTTGGAGAG | 0.994
GTTGGAGTC | 0.961
GTTGGCAACC | 1.01

Sequence | switch fluorescence ratio
GTTGGCAGCA | 1.03
GTTGGCCGAG | 0.986
GTTGGCGCAG | 1
GTTGGTCTG | 1.04
GTTGGTTAAG | 0.992
GTTGGTTGTC | 1.14
GTTGTAATTT | 1
GTTGTACGGC | 0.992
GTTGTATTAA | 0.995
GTTGTATTGC | 0.992
GTTGTCACAT | 0.977
GTTGTCGTTC | 1.01
GTTGTGAGGT | 0.989
GTTGTGTCGC | 0.974
GTTGTTCAGC | 0.947
GTTGTTTCGG | 0.981
GTTTAAAATT | 1.02
GTTTAAGCAT | 0.973
GTTTACACGA | 1.01
GTTTACACGT | 1.06
GTTTACCAAT | 0.951
GTTTAGGTCA | 0.98
GTTTCCCTTC | 1.01
GTTTCCTCGG | 1.19
GTTTCGACTT | 0.991
GTTTCGAGCA | 1.1

Sequence | switch fluorescence ratio
GTTTCGATTA | 0.967
GTTTCTCGTA | 0.984
GTTTGCGCGG | 0.972
GTTTGGACAC | 1
GTTTGGCGTT | 0.988
GTTTGGTTGT | 0.98
GTTTGTCTGG | 1.06
GTTTGTGGCT | 0.973
GTTTTAATCA | 1.03
GTTTTACGTT | 0.989
GTTTTAGGTG | 1.12
GTTTTAGTAT | 1.03
GTTTTATCTG | 0.977
GTTTTCAAGA | 0.997
GTTTTCCAGG | 1.2
GTTTTGAGC | 0.97
GTTTTGCTCT | 0.981
GTTTTGGATC | 1.01
GTTTTTCGCG | 1.02
GTTTTTGCGT | 0.961
TAAAAATATC | 0.975
TAAAACCATT | 1.05
TAAAACTCTT | 1.01
TAAAAGGAAC | 1.06
TAAAAGTCCT | 1.12
